Experimental data reported in publication PMC4336329 (PLoS ONE, 2015).
The whole screen tested about 310,000 compounds, of which about 14,000 (4.5%) showed an effect of 50% or more. The effect is printed as a negative number. Some of the results follow.

The compounds below were run against human ether-à-go-go-related gene (hERG) potassium channel (human, UniProt Q12809) (assay: primary screen, population patch clamp on CHO cells stably expressing hERG).
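Further: peak tail current of the secondary pulse compared with the same well before compound.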

Chain of human ether-à-go-go-related gene (hERG) potassium channel (Q12809 whole entry, looked up): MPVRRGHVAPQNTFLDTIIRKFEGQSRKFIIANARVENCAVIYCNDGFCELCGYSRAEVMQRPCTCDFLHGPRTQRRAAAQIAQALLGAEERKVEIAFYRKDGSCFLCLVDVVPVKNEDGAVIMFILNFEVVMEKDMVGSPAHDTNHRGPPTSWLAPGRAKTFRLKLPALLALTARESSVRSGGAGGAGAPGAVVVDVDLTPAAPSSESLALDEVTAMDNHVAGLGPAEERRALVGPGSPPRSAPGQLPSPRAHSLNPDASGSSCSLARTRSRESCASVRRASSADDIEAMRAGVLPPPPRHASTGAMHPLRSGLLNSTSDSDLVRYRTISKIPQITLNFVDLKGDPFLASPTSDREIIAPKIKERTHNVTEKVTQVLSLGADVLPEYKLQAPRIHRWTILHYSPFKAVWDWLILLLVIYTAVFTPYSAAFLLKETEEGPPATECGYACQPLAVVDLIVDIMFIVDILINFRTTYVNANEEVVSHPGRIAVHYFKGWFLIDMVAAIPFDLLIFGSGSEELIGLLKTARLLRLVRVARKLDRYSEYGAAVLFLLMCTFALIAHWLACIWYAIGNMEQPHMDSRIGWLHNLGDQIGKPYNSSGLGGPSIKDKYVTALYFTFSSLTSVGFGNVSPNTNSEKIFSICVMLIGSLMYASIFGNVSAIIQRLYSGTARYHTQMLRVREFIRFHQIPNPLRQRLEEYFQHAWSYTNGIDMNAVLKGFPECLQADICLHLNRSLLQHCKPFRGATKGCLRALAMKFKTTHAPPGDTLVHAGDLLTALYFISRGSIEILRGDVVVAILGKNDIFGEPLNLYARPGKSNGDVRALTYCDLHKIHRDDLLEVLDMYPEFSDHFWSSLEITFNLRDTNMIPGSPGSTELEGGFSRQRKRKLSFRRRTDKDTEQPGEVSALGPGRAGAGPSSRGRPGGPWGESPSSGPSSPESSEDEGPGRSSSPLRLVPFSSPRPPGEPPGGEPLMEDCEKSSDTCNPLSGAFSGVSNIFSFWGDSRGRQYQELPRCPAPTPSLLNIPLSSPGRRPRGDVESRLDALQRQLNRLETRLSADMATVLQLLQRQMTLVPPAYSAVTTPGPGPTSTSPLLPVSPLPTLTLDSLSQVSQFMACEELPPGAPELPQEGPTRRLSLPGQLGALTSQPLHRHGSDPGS

SMILES | hERG current change (%, negative = inhibition) at 10uM [%]
CCCCn1c(-c2cccs2)nc2oc3ccccc3c(=O)c2c1=O | -14.3
CCc1nnc(NC(=O)c2ccc(-c3ccc(C(C)=O)cc3)o2)s1 | 3.38
CCCCOC(=O)c1ccc(NC(=S)NC(=O)c2ccco2)cc1 | 15.6
Cc1ccc(NC(=S)/N=C(\N)Nc2nc(C)c3cc(C)ccc3n2)c(C)c1 | 3.87
CCOc1ccc(C(=O)C(C)OC(=O)Cn2cnc3c2c(=O)n(C)c(=O)n3C)cc1 (stereo not drawn) | -33.2
COc1ccc(/C=N/NC(=O)CC2N=C(Cc3ccccc3)NNC2=O)cc1OC (stereo not drawn) | 14.5
COc1ccc(C(=O)Nc2cccc(-c3nnc(-c4ccco4)o3)c2)cc1 | -37.4
Cc1ccc(C)c(NC(=O)CSc2nnc(CSc3nc(C)cc(C)n3)n2Cc2ccco2)c1 | -37.9
CC1CN(CC(=O)N2CCc3[nH]c4ccccc4c3C2)CC(C)O1 (stereo not drawn) | 10.6
CCN(CC)C(=O)CSc1nc2cc3c(cc2c(=O)n1CCCCCC(=O)NCc1ccc(OC)cc1)OCO3 | 4.18
O=C1c2ccccc2C(=O)N1CCCCSc1nc2ccccc2o1 | -1.97
CN1CCN(c2nc(-c3ccccc3)cc(C(F)(F)F)n2)CC1 | -19.1
CCN(CC(=O)NCC(=O)Nc1ccc(Br)cc1C)Cc1ccccc1 | 4.45
Cc1cccc(C)c1-n1cccc1/C=C1\SC(=S)N(c2cccc(C(=O)O)c2)C1=O | 46.6
O=C1CN(C(=O)c2ccc(Cl)c(S(=O)(=O)N3CCc4ccccc43)c2)c2ccccc2N1 | -21
OCC1(CCc2ccccc2)CCN(Cc2cc(Cl)ccc2O)CC1 | -49.5
O=C(O)c1cccc2c1/C(=N/Nc1ccc([N+](=O)[O-])cc1[N+](=O)[O-])c1ccccc1-2 | 19.7
O=C(NCc1ccc(Cl)cc1)C1CCCN(C(=O)c2ccc(Cl)cc2)C1 (stereo not drawn) | -40.1
COc1ccccc1C1c2[nH]c3ccccc3c2C[C@H]2C(=O)N(C3CCN(Cc4ccccc4)CC3)CC(=O)N12 (stereo partly drawn) | -48.7
COc1ccc2[nH]c(=O)c(C3c4cc(OC)c(OC)cc4CCN3C(=O)c3ccco3)cc2c1 (stereo not drawn) | -23.8
Cc1ccc(NC(=O)N2CCc3ccccc32)cc1 | 8.51
Cc1cc(O)cc(=O)n1C | 7.94
Cc1nnc(SC(C)C(=O)NCC2CCCO2)n1-c1ccccc1 (stereo not drawn) | -6.04
O=S(=O)(Nc1ncccn1)c1ccc(NC(=S)Nc2cccc(Cl)c2)cc1 | 19.1
COc1ccccc1CN1CC(C(=O)N(C)CCCn2nc(C)cc2C)CCC1=O (stereo not drawn) | 1.41
Cc1ccc(S(=O)(=O)N2CCOCC2)cc1NC(=O)c1cc2c(s1)CCC2 | -13.4
Cc1nnc(N(Cc2ccccc2)C(=O)c2cnccn2)s1 | 11.6

SMILES | hERG current change (%, negative = inhibition) at 10uM [%]
O=C(CCN1C(=O)/C(=C/c2ccc(Cl)cc2)SC1=S)NCCCn1ccnc1 | -23.4
O=[N+]([O-])c1ccc(Sc2ccccn2)nc1 | 10.8
C=CCn1c(SCc2ccc(Cl)cc2)nc2cc(C(=O)N3CCC(C(N)=O)CC3)ccc2c1=O | -33.3
COc1ccc(C(=O)N2CCOC2CNC(=O)C(=O)NCc2ccccc2Cl)cc1 (stereo not drawn) | -0.13
Br.COc1ccc(C(=O)Cn2c(NCCCO)nc3ccccc32)cc1OC | -5.82
CN(C)CC(=O)Nc1ccc(Oc2ccc(Cl)cc2)cc1.Cl | 24.5
Cc1c(CC(=O)O)c(=O)oc2cc(OCc3ccc(Br)cc3)ccc12 | 18.5
N#Cc1cccc(C(=O)OCC(=O)c2ccc3c(c2)NC(=O)CO3)c1 | 7.1
O=C(NCCc1ccc(F)cc1)Nc1ccc([N+](=O)[O-])cc1 | -12
COc1cccc(Nc2c3c(nc4c(-c5ccccc5)c(C)nn24)CCC3)c1 | -2.06
CCc1c(O)nc(SCC(=O)Nc2cc(C)on2)n(-c2ccccc2)c1=O | 3.39
N#CCC(=O)Nc1sc2c(c1C(N)=O)CCCC2 | -9.21
Cc1cc(N2C(=O)CC(N3CCC(n4c(=O)[nH]c5ccccc54)CC3)C2=O)no1 (stereo not drawn) | 2.34
Cc1cc(C)cc(NC(=O)CN2CCN(c3ncccn3)CC2)c1 | -12.1
O=C(NCc1ccccc1Cl)c1ccc(S(=O)(=O)N2CCCC2)cc1 | -6.88
COc1ccc(C(=O)Nc2sc3c(c2C(=O)NCc2ccco2)CCCC3)cc1OC | -20.1
CN(C)S(=O)(=O)c1cccc(NC(=O)COC(=O)c2ccc3c(c2)OCO3)c1 | -19.4
COc1ccc(/C=C/C(=O)Nc2ccccc2C(F)(F)F)cc1OC | -4.62
O=c1c(C(c2ccc(Br)cc2)c2c(O)nc3n(c2=O)CCCS3)c(O)nc2n1CCCS2 | 6.44
CNS(=O)(=O)c1cc(NC(=O)CCNC(=O)c2ccco2)ccc1C | 11.3
O=C(N/N=C/C=C/c1ccco1)C(O)c1ccccc1 (stereo not drawn) | 12.4
CCOc1cc(/C=C\[N+](=O)[O-])ccc1OCC(=O)Nc1ccccc1C | -2.89
Nn1c(C2CCC2)nc2cc(Cl)ccc2c1=O | -0.707
O=C(Nc1cccc2cccnc12)c1cccnc1 | -8.96
Cc1nc2cc3sc(C)nc3cc2s1 | 30.3
CC/C=C/C(=O)N1CC2(CC(c3cccc(NC(=O)CC)c3)=NO2)C[C@H]1C(N)=O (stereo partly drawn) | 13.6
Cc1cc([N+](=O)[O-])nn1CC(=O)NCCc1c[nH]c2ccccc12 | 17.9
